Reference: PubChem BioAssay AID1240 (Sanford-Burnham Center for Chemical Genomics, 2008)
The whole screen tested about 50,000 compounds, of which about 800 (1.6%) showed an effect of 50% or more. This is one part of the list.

Target: Bcl-2-like protein 10 (Homo sapiens) (UniProt Q9HD36)
Experiment: Phenotype converters, Bcl-B/TR3 peptide binding displacement, primary biochemical FP (AID 1240);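 further: 0% = Bcl-B with tracer peptide and DMSO and 100% = tracer peptide lacking Bcl-B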
Settings: GST-Bcl-B / FITC-TR3 peptide fluorescence polarization; stronger effect = higher value; compound at 3.75 mg/L

Chain of UniProt Q9HD36 (Q9HD36 whole entry, looked up): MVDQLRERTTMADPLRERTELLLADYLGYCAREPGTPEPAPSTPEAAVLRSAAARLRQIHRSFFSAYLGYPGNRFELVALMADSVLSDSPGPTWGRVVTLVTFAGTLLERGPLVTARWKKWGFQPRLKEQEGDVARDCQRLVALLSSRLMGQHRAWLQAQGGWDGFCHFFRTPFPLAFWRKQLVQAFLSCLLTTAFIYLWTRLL

SMILES	displacement [%]
O=C(NN1C(=O)S/C(=C\c2ccccc2O)C1=O)c1ccc([N+](=O)[O-])cc1	-22.6
Cc1c(NC(=O)CC2CCC2)c(=O)n(-c2ccccc2)n1C	13.3
CC(C)(C)c1ccc2[nH]c3c(c2c1)CCC/C3=N\O	-3.6
Cc1cc(Cl)ccc1OCC(=O)Nc1ncn[nH]1	7.3
Cc1ccc(OCCNc2cc(N3CCN(C)CC3)ccc2[N+](=O)[O-])cc1C	12.1
O=C(Nc1ccccc1C(=O)Nc1ccccn1)c1ccccc1F	4.5
Cc1cc2c(cc1C)CN(c1ccc(C=Nc3cccc(Br)c3)cc1)C2	-8.5
CN(C)c1ccc(NC(=O)c2ccccc2F)cc1	0.4
Cc1ccc(-c2nn(-c3ccccc3)cc2/C=C(\C#N)C(N)=O)o1	61.7
COc1ccc(C(=O)c2ccccc2)c2c(O)ccc(C(=O)c3ccccc3)c12	-4.4
CC1CCN(C2=NC(=O)/C(=C/c3cccc4ccccc34)S2)CC1	-5.8
O=C(O)CNC(=O)/C(=C\c1cccs1)NC(=O)c1ccccc1	7
Cc1ccc(N2C(=O)CC(N3CCC(Cc4ccccc4)CC3)C2=O)cc1 (stereo not given)	-1.8
CC(C)COc1ccc(C(=O)Nc2ccc(Br)cc2)cc1	10
CC(=O)C1=C(O)CCC1=Nc1ccccc1	5.5
CCN(CC)c1ccc(N=Cc2ccc(C=Nc3ccc(N(CC)CC)cc3)cc2)cc1	9.1
O=C(On1c(-c2ccccc2)nc2ccccc2c1=O)c1cccc([N+](=O)[O-])c1	-4
Cc1cc(C)c(N(C=O)C(=O)C2C(C)C3C=CC2C32CC2)c(C)c1 (stereo not given)	2.8
Cc1cc(C)n(-c2cc(Nc3ccccc3)nc(C)n2)n1	-11.6
NC(=O)c1c(N2C(=O)c3ccccc3C2=O)sc2c1CCCC2	-10
CCOc1cccc(C(=O)Nc2ccc3ccccc3c2)c1	10.1
Cc1ccc(NC2c3ccccc3Oc3ccccc32)cc1	2.9
COc1ccc(NS(=O)(=O)c2cc(C(=O)Nc3ccccc3C)ccc2C)cc1	-11.1
Cc1cccc(OCC(=O)Nc2ccc(Cl)cc2)c1C	1.2

SMILES	displacement [%]
O=C1NC(=S)S/C1=C\c1cc(Cl)c(OCc2ccccc2)c(Cl)c1	8.2
COc1ccc(NC(=O)c2ccccc2O)cc1Cl	12.9
O=[N+]([O-])c1cccc(/C=N\Nc2nc(-c3ccccc3)cc(-c3ccccc3)n2)c1	0.3
COc1cccc(C(=O)Nc2ccc(-c3nc4ccccc4o3)c(O)c2)c1	-23.2
O=[N+]([O-])c1ccc(C(O)CN2CCN(C/C=C/c3ccccc3)CC2)cc1 (stereo not given)	-13.3
CCOc1cc(OCC)cc(C(=O)N2CCN(c3ccc([N+](=O)[O-])cc3)CC2)c1	16.9
O=C(Cc1ccccc1)Nc1cccc(-c2nc3ccccc3c(=O)o2)c1	2.5
O=C1C=C(Nc2ccc(Cl)cc2)C(=O)N1c1ccccc1	3.3
C=CCc1cccc2cc(C(=O)Nc3ccc(S(N)(=O)=O)cc3)c(=O)oc12	8.4
Cc1nn(Cc2ccccc2)c(=O)c2ccccc12	5.1
CCOc1ccc(-c2n[nH]c(=S)o2)cc1	11.7
COc1cc(Br)c(C2NCCc3cc(OC)c(OC)cc32)cc1OC (stereo not given)	3.3
O=C(O)c1ccc2c(c1)C(=O)N(Nc1c(Cl)cc(Cl)cc1Cl)C2=O	1.2
COC(=O)c1ccc(/C=c2\sc3nc(-c4ccc(C)cc4)nn3c2=O)cc1	10.7
O=C(COc1ccccc1)Nc1cccc(Cl)c1Cl	8.7
O=C(COc1ccccc1)Nc1cc([N+](=O)[O-])ccc1Cl	3.8
O=C(c1cccc(Cl)c1)N1CCN(Cc2ccccc2F)CC1	-15
CCOC(=O)C1=C(O)/C(=C/c2ccc(N(C)C)cc2)N=C1C	-116
CCN(CC)c1ccc(NC(=O)c2ccc(Cl)cc2Cl)cc1	5.9
Cc1ccc2nc(NC(=O)C3C4C=CC(C4)C3C(=O)O)sc2c1 (stereo not given)	-4.5
Cc1ccc(S(=O)(=O)N2CCN(C(=O)c3ccc([N+](=O)[O-])cc3)CC2)cc1	-2.1
C=C(C)CC1Nc2ccccc2NC1CC(=C)C (stereo not given)	-10.6
O=C(Nc1ccc(Cl)c(Cl)c1)N1CCc2ccccc21	-11.2
CC(=O)c1cnc2cc(-c3ccc(Cl)cc3)nn2c1C	-11.1

SMILES	displacement [%]
COc1ccc(S(=O)(=O)N(CCc2ccccc2)CC(=O)NC2CCCC2)cc1	-10.9
CC(=O)c1ccc(OC(=O)c2ccccc2Br)cc1	-10.3
CCCOc1ccc(-c2nnc(NC(=O)Nc3ccc(Cl)cc3)s2)cc1	13.4
COC(=O)C(F)(F)C(F)(F)C(F)(F)OC(F)(C(=O)OC)C(F)(F)F (stereo not given)	5.7
CCOc1ccc2nc(NC(=O)C(c3ccccc3)c3ccccc3)sc2c1	66.7
Cc1ccc(C)c(NC(=O)CC(C)C2CCCO2)c1 (stereo not given)	-2
C=CCSc1nc2sc(C(=O)O)c(C)c2c(=O)[nH]1	-12
CC1=C(C(=O)Nc2ccc(Cl)cc2)C(c2ccc(Br)cc2)NC(=O)N1 (stereo not given)	4.2
CC12c3ccccc3C(c3ccccc31)C1C(=O)N(CCO)C(=O)C12 (stereo not given)	1.8
Cn1cnnc1Sc1cc(N2CCN(CCO)CC2)ccc1[N+](=O)[O-]	6.9
CC(C)OCC(O)CS(=O)(=O)Cc1ccc(Cl)cc1 (stereo not given)	-3.8
CC(=O)C1=C(O)C(=O)N(c2ccccn2)C1c1cccc([N+](=O)[O-])c1 (stereo not given)	-4
C=CCN1C(=O)/C(=C/c2ccc(-c3ccc([N+](=O)[O-])cc3C)o2)SC1=S	13.1
CN1C2C=C(N(CCc3c[nH]c4ccccc34)C(=O)c3ccccc3)CC1CC2 (stereo not given)	-10.7
CCOc1ccccc1NC(=O)CN(c1ccc(OC)c(Cl)c1)S(C)(=O)=O	2.8
Cc1cccc(C)c1-n1c(C)cc(/C=N/NC(=O)c2cccnc2)c1C	-32.4
NC(=Nc1ccccc1)SC1CC(=O)N(c2ccc(F)cc2)C1=O (stereo not given)	8.6
CCOc1cc(/C=C2\C(=O)NN(c3ccc(Cl)c(Cl)c3)C2=O)ccc1OC(C)=O	13
COc1ccc(S(=O)(=O)N(CCc2ccccc2)CC(=O)Nc2ccc(F)cc2)cc1OC	-5.3
COc1cc(CN2CCN(C(=O)CC(C)C)CC2)cc(OC)c1O	-3.9
COc1ccc(/C=C/C=C2\NC(=S)NC2=O)cc1	128
CCCCc1c(C)nc(N/N=C/c2c(F)c(F)c(F)c(F)c2F)[nH]c1=O	-10.9
